Results published in PubChem BioAssay AID1508624 (National Center for Advancing Translational Sciences (NCATS), 2021).
In all, about 48,000 compounds went through this assay and about 120 (0.25%) were called active. Not shown: some 4% with an inconclusive outcome. Calls come from the whole dose curve; as a rule, active = well fitted activation curve with a large enough effect; inconclusive = small, poorly fitted or top-dose-only effect, or another doubt; inactive = no such curve, though single readings can be large or run the other way. The list shows a part of the results.

Assay: Primary qHTS for Identification of Small Molecule Activators of Huntingtin-Antisense Promoter Activity; note: nearly all actives have a fitted effect of over 55% in size
Conditions: HEK293 HTT-AS promoter firefly luciferase reporter, 24 h; series mostly up to 57.5 µM; activity change, positive = activation: at the top concentration
How it was run: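 Quantitative HTS used concentration series of up to 57.5 uM final on HEK293 luciferase reporter cells, 24 h at 37 degrees C. Readout was Dual-Glo firefly luminescence.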

Compound	activity change, positive = activation
Cc1ccc2c(c1)c(CC(=O)Nc1ccc(C)c(F)c1)c(C(=O)O)n2C	inactive: -24.7%
Cc1ccc2nc(COc3ccccc3NC(=O)c3ccccc3F)cc(=O)n2c1	inactive: -1.67%
CCOc1cccc(C2c3[nH]c4ccccc4c3CCN2C(=O)CSCc2ccc(F)cc2)c1 (stereo unspecified)	inactive: -28.6%
CCc1cccc(NC(=O)C2Cc3ccccc3N2C(=O)c2ccccc2)c1 (stereo unspecified)	inactive: -31%
NC(=O)Cn1c(=O)n(CCCCCC(=O)NCc2ccc(F)cc2)c(=O)c2sccc21	inactive: -0.0765%
O=C(C1COc2ccccc2O1)N(Cc1cccnc1)c1nc2c(Cl)cccc2s1 (stereo unspecified)	inactive: -8.44%
COc1ccc(OC)c(NC(=O)CSc2ncc3c(n2)-c2ccccc2N(C)S3(=O)=O)c1	inactive: 15%
CCOC(=O)N1CCN(Cc2nc3cc(NC(=O)C(C)C)ccc3n2C(C)C)CC1	inactive: -23.3%
CCCNC(=O)c1ccc(-c2nc(CS(=O)(=O)c3ccc(C)cc3)c(C)o2)cc1	inactive: -10.6%
COc1ccc(N(CC(=O)Nc2cccc(C(C)=O)c2)S(=O)(=O)c2ccccc2)c(OC)c1	inactive: 0%
Cc1cc(OCCCn2c(CCNC(=O)C3CCCCC3)nc3ccccc32)ccc1Cl	inactive: -45.2%
OCc1cnc(SCc2ccc(F)cc2)n1Cc1ccc(F)cc1	inactive: -40.4%
CCOc1ccc(C(=O)N(Cc2cc(OC)c(OC)c(OC)c2)c2ccccn2)cc1	inactive: -32.4%
CCOC(=O)C1=C(C)NC(=O)NC1c1cn(-c2ccccc2)nc1-c1ccc(OC(C)C)cc1 (stereo unspecified)	inactive: -16.3%
O=C(Nc1nc2n(n1)C(c1ccc(Cl)cc1)C=C(c1ccccc1)N2)c1ccco1 (stereo unspecified)	inactive: -33%
Cc1nn(C)c2c1c(C(F)(F)F)cc(=O)n2C(C)C(=O)NCCc1ccccc1 (stereo unspecified)	inactive: -17.1%
Cc1ccc(-n2c3c(cc(-c4nc(-c5ccc(Cl)cc5)cs4)c2=O)C(=O)CC(C)(C)C3)cc1C	inactive: -11.2%
C#CCSc1nc(-c2ccccc2)cc(-c2ccccc2)c1C#N	inactive: -9.68%
O=S(=O)(c1ccc(-c2cc(C(F)(F)F)on2)s1)N1CCN(c2ccc(F)cc2)CC1	inactive: -26%
Cc1ccnc2c1NC(=O)c1cccnc1N2C1CC1	inactive
CN(C)CCC=C1c2ccccc2CCc2ccccc21	inactive: -17.2%
COc1cc(NS(=O)(=O)c2cc3c(cc2C)N(C)CCO3)cc(OC)c1OC	inactive: -26%
COc1ccc(NC(=O)C2CCCN(c3ncnc4c3nc3n4CCCCC3)C2)c(OC)c1 (stereo unspecified)	inactive: 0.261%

Compound	activity change, positive = activation
Cc1cc(Br)ccc1NC(=O)Cn1cc(S(=O)(=O)N2CCN(c3ccccc3F)CC2)c2ccccc2c1=O	inactive: -8.44%
Cc1ccc(C)c(N2CCN(C(=O)CCc3nnc4n(CC(C)C)c(=O)c5ccccc5n34)CC2)c1	inactive: -1.16%
CCOc1ccc(CNC(=O)c2cnc3sc(N4CCOCC4)nn3c2=O)cc1	inactive: -8.34%
CCS(=O)(=O)N1CCc2cc(C(=O)Nc3ccc(C(=O)OC)cc3)ccc21	inactive: -27.1%
Cc1ccc(CN2CCc3nc(Nc4ccc5c(c4)OCCO5)ncc3C2)cc1	inactive: -2.48%
CCn1cc(C(=O)N2CCN(c3cccc(Cl)c3)CC2)c2cc(OC)c(OC)cc2c1=O	inactive: -25.9%
CC1=C(c2ccc(C(C)C)cc2)S(=O)(=O)NC1=NCCCN1CCN(c2ccccc2F)CC1	inactive: -22.2%
C#C[C@]1(O)CC[C@H]2[C@@H]3CCc4cc(OC5CCCC5)ccc4[C@H]3CC[C@@]21C	inactive: 1.34%
COc1cccc(C(=O)Nc2cccc(-c3cn4ccsc4n3)c2)c1OC	inactive: 15%
CCCCS(=O)(=O)CC(O)CSc1nc(-c2ccc(C)cc2)cc(-c2ccccc2)c1C#N (stereo unspecified)	inactive: -25%
Cc1ccccc1-c1noc(-c2cccnc2N2CCN(c3ccccc3)CC2)n1	inactive: -8.03%
O=C(Nc1ccc(F)cc1F)c1cc(-c2ccc(Cl)cc2)on1	inactive: -0.407%
CCOC(=O)c1ccc(NC(=O)CCn2c(=O)c3cccn3c3cccnc32)cc1	inactive: -5.65%
CCc1cccc(NS(=O)(=O)c2ccc(-n3cccn3)cc2)c1	inactive: -40.4%
CCN(CC)C(=O)Cn1c(=O)n(-c2ccc(C)c(C)c2)c(=O)c2c3c(sc21)CCCCC3	inactive: -12.8%
O=C(NCCCN1CCN(c2ccc(F)cc2)CC1)c1cnn(-c2ccc(F)cc2)c1-n1cccc1	inactive: -43%
CCc1ccc(NC(=O)CSc2ccc(-c3ccccn3)nn2)cc1	inactive: -29.7%
Cc1cccc(-c2nc3c4ccccc4n(Cc4cccc(Cl)c4)c(=O)n3n2)c1	inactive: -11.9%
O=C(CN1C(=O)COc2ccc(S(=O)(=O)N3CCOCC3)cc21)N1CCN(c2cccc(Cl)c2)CC1	inactive: -14.6%
CC(=O)c1cccc(Nc2nc(-c3cccc(C)c3)nc3ccccc23)c1	inactive: 4.29% [at 11.5 µM, percent change from vehicle, -100% = no light]
CC(C)[C@H](CO)Nc1nc(Nc2cccc(Cl)c2)c2ncn(C(C)C)c2n1	inactive: -1.28%
Cc1ccccc1C(=O)Nc1ccc(OCc2cc(=O)n3ccccc3n2)cc1	inactive: 9.76%
Cc1ccc(NC(=O)Cn2cc(S(=O)(=O)N3CCCC3)c(S(=O)(=O)N3CCCC3)c2)cc1F	inactive: 14.7% [at 11.5 µM, percent change from vehicle, -100% = no light]
